Measured values: a collection of fitness landscapes (doi:10.1016/j.celrep.2020.107928)
Over roughly 81,000 sequences, “one-hybrid fitness for binding parS DNA” has its median near -0.17; the highest 2% begin near 0.51. Some of the results follow.

B1: Caulobacter ParB omega fusion; a variant is named by its letters at X, in order, B8GW30 (parent)
chain: MESVVVGEPGMSEGRRGLGRGLSALLGEVDAAPAQAPGEQLGGSREAPIEILQRNPDQPRRTFREEDLEDLSNSIREKGVLQPILVRPSPDTAGEYQIVAGERAWRAAQRAGLKTVPIMVRELDDLAVLEIGIIENVQRADLNVLEEALSYKVLMEKFERTQENIAQTIGKSXSHVANXMRLLXLPDEVQSYLVSGELTAXHARAIAAAADPVALAKQIIEGGLSVRETEALARKAPNLSAGKSKGGRPPRVKDTDTQALESDLSSVLGLDVSIDHRGSTGTLTITYATLEQLDDLCNRLTRGI

Variants of: B1
Test: one-hybrid fitness for binding parS DNA (scaled: cognate 1, non-cognate 0); higher = stronger binding
Settings: with parS DNA site
How it was run: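 In E. coli USO, a HIS3 reporter with its site placed 19 bp from the promoter was used to select Caulobacter ParB variants randomised at four specificity codons. Growth lasted 48 hours at 37°C on histidine-free M9 containing 0.1 mM IPTG and 5 mM 3-AT. Fitness was taken as the log change in variant-to-wild-type read ratio from Illumina sequencing of pre- and post-selection plasmids, rescaled between the non-cognate and cognate sites.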

one-hybrid fitness for binding parS DNA, 0.508:
IVSM

one-hybrid fitness for binding parS DNA, 0.215:
RMMW

one-hybrid fitness for binding parS DNA, 0.432:
RCPA

one-hybrid fitness for binding parS DNA, ≤ 0.2:
TLMI
TPKF
VAWF
SMLR
VDAN
TLRP
ATAC
TAID
QMSN
YIPE
QNSQ
TYHR
SKQT
MARP
YRRK
TSRH
NAQR
WNTN
WTSC
QVKY
KPRT
IFWR
LPNM
PALS
RMSH
TAAY
QPLT
ANLS
IKVR
LQYG
CTLE
CQVF
PMLE
GESN
FPYR
DCHS
KRTL
VPHE
WNTG
QVPT
DAVL
QMQG
EQLW
GLLL
IRQT
QALD
AYFR
QFKH
PSSS
SPGQ
QTDQ
ETLN
AGPS
RCID
RSPN
EEHG
QTHA
IQGF
IRQS
MAER
DCRM
ESCG
FANC
ATSM
CHLC
TLGP
KMPE
LLSC
RWGH
LVKC
VMPN
SRMN
CGNG
VEIW
TQLA
AKLY
QFSW
NTRY
LLHN
PTNK
ALPS
NKGR
IVMP
LQWR
QRIF
APAS
EWNI
ATQG
ATGN
WQES
WMVY
KCTG
YTSA
ETQG
YCTF
CAQD
AKYK
NFEG
SITH
VCLR
RFNL
QLKT
EFTH
CTRG
RPHT
SLRY
VGHV
NHWV
QHYE
PWSS
QSSA
LGPS
DPPP
CRSV
KICK
CLEG
QRIH
QRCP
TSHV
ADPI
DIRR
MYLT
NKTC
EPWS
DSCK
QYIL
NYLV
KYDL
KRDV
HCSM
SMRV
TPSN
FTLG
LSLL
DILT
QTHC
VHES
MDVT
VHPL
CRNN
QVHR
QMGI
MKLT
MMSS
KDIS
VAVF
ILFV
RFFV
PFQR
IVMR
PYDL
TWTG
PPQD
QKSN
MCTL
REAM
EISE
SIEC
MLTL
IWDG
QRLQ
SYGR
GSHH
GPFC
LPFD
TDCI
IKTV
SARN
QDGG
DGTM
QLDY
LNMH
YTHF
QPKA
AHQW
YQMC
QFLS
FTCT
VVLC
MHGT
PRYN
DINY
VTMT
FLPS
QHER
MVCT
PTWF
TKSC
FSSF
QQLM
YKFC
LYGT
VMYC
EDMT
HKEV
KDHF
LNWT
EHND
RTHH
PQDM
YMTR
TARD
HGPG
VFPF
RDSA
AGLL
NAMC
KHRQ
GSPM
CYNC
VWDS
PQIT
DVGL
DAQC
RPGW
QDFG
QCSL
TVCF
LEKR
RISL
ITAN
EKRR
KPFW
HPYQ
WSCD
NGRW
EKRG
CPKR
VNLI
WDGG
NEFG
MWPS
LSPI
NPPV
YYSR
TYSR
HGCC
DQNS
WMGT
CYPS
LRMA
YHID
ILVS
RHWW
AAYK
HQKC
RKRF
YANV
SMIF
GDKF
LIAS
QQLI
LDTP
MLLH
MTDE
AVWT
AVNR
STYF
QPRY
HSQV
SKRT
TPPF
PWDG
VWRT
DAET
QTYG
NAYG
IRCW
VRTD
SATV
RGPA
RQIP
SQVQ
QHKR
AADY
CSVI
SQQS
TPGV
NRER
FPQC
NRVT
IANC
GHDG
TNSV
SLPQ
NSMW
QEDT
IACT
GHPI
SPPL
CVKM
WRCR
FINR
LTER

one-hybrid fitness for binding parS DNA, 0.391:
RMKM

one-hybrid fitness for binding parS DNA, 0.966:
RQTC

one-hybrid fitness for binding parS DNA, 0.227:
IDPK

one-hybrid fitness for binding parS DNA, 0.874:
RAKS

one-hybrid fitness for binding parS DNA, 0.298:
RWFA

one-hybrid fitness for binding parS DNA, 0.259:
RLFW

one-hybrid fitness for binding parS DNA, 0.649:
RGQC

one-hybrid fitness for binding parS DNA, 0.201:
IKIC

one-hybrid fitness for binding parS DNA, 0.937:
RKGG
